Results from article PMC4336329 (PLoS ONE, 2015).
The campaign covered roughly 310,000 compounds. About 14,000 (4.5%) showed an effect of 50% or more. The effect is printed as a negative number. Some of the results follow.

Biological target: human ether-à-go-go-related gene (hERG) potassium channel (human, UniProt Q12809)
Test: primary screen, population patch clamp on CHO cells stably expressing hERG
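Also: peak tail current of the secondary pulse compared with the same well before compound.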

Chain of human ether-à-go-go-related gene (hERG) potassium channel (Q12809 whole entry, looked up): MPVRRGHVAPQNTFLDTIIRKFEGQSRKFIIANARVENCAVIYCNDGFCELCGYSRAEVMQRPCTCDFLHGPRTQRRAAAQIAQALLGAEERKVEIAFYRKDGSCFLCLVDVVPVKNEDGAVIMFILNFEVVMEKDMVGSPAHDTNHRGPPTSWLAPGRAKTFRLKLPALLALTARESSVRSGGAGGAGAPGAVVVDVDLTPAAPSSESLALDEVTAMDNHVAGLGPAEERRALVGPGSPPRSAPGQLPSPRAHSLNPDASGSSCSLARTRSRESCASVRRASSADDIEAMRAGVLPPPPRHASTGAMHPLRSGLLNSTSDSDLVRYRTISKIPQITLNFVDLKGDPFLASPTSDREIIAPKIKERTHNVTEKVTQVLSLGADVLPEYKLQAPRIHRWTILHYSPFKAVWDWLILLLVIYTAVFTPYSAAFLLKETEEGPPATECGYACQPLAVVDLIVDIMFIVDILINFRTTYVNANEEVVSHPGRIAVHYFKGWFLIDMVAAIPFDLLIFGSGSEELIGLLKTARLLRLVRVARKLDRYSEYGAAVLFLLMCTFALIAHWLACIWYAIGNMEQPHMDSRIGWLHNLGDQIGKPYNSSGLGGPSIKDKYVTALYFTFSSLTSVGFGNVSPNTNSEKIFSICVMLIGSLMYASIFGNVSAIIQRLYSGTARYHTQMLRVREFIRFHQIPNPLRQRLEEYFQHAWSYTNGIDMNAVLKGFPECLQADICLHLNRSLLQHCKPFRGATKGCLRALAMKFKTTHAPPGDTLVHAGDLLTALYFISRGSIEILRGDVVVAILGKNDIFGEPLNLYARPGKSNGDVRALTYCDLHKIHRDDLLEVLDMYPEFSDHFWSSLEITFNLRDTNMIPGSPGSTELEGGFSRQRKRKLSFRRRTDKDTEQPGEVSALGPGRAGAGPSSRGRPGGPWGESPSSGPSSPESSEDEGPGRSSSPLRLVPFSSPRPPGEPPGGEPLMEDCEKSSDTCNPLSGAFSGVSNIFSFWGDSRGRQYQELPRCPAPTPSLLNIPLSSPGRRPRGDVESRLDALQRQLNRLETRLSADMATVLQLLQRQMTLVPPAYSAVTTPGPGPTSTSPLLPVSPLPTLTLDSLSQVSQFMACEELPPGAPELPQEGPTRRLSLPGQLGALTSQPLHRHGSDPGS

| Structure (SMILES) | hERG current change (%, negative = inhibition) at 10uM [%] |
| --- | --- |
| Cc1ccc(C)c(NC(=O)CCc2nnc3ccc(NCc4ccco4)nn23)c1 | 14.8 |
| O=C(CCl)Nc1ccccc1Sc1ccccc1 | -10.7 |
| COc1ccc(Nc2nc(C(F)(F)F)nc(C)c2C#N)cc1 | 8.81 |
| COc1ccccc1OCc1cc(-c2ccccc2)no1 | -7.11 |
| CCOC(=O)NCc1ccc(Cl)c(Cl)c1 | -9.24 |
| O=C(O)CC1C(=O)NCCN1CCCc1ccccc1 (stereo not drawn) | 3.16 |
| Cc1ccc(Cn2c(SCCN3CCCCC3)nc3c2c(=O)[nH]c(=O)n3C)cc1 | -74.1 |
| CC(=O)c1sc(NC(=O)c2ccc(C(C)(C)C)cc2)nc1C | -6.02 |
| Cc1ccccc1C1c2[nH]c3ccccc3c2C[C@H]2C(=O)N(C3CC3)CC(=O)N12 (stereo partly drawn) | 8.06 |
| Cc1ccc2[nH]c(=O)c(C(c3nnnn3CC3CCCO3)N3CCc4ccccc4C3)cc2c1 (stereo not drawn) | -9.96 |
| Cc1cc(NC(=O)c2ccc(F)cc2F)n(-c2nc3ccccc3[nH]2)n1 | 25 |
| O=C(NCCc1ccc(Cl)cc1)C(=O)c1c[nH]c2ccccc12 | -10.8 |
| CN(C(=O)c1sc2nc(N3CCOCC3)c3c(c2c1N)CCCC3)c1ccccc1 | 19.5 |
| CCOC(=O)c1cc(-c2ccccc2)n(CC(=O)Nc2ccc(OC)c(OC)c2)c1C | 3.72 |
| CN=c1sc2ccccc2n1CC(O)c1ccccc1 (stereo not drawn) | -21.4 |
| COc1cc2c(C)nc3c(c(C)nn3-c3ccccc3)c2cc1OC | 10.4 |
| CCN1CCN(c2ccc(N)cc2C)CC1.Cl | 2.22 |
| CCCN(CC(=O)Nc1ccccc1Br)CC(=O)Nc1ccc(F)c(F)c1F | -16.4 |
| O=C(CSc1nnc(Cc2ccccc2)o1)c1ccc2c(c1)OCO2 | -0.908 |
| O=S(=O)(c1ccccc1)c1nc(NCc2ccccc2)sc1Cl | -9.88 |
| OCCOCCn1c(CCNc2nc(-c3ccc(Cl)cc3)cs2)nc2cc(Cl)c(Cl)cc21 | 3.83 |
| Cc1nn2c3ccccc3n(Cc3ccccc3)c2nc1=O | -0.223 |
| O=C(O)c1cc(-c2ccc(-c3ccc(F)cc3)o2)nc2ccccc12 | 18.1 |

| Structure (SMILES) | hERG current change (%, negative = inhibition) at 10uM [%] |
| --- | --- |
| CN(Cc1nc(-c2cnccn2)no1)C1CC(C)(C)NC(C)(C)C1 | 15.4 |
| O=C(COn1nnc2ccccc21)NCC1CCCCC1 | 25.6 |
| CCOC(=O)N1CCN(C(=O)c2cn(CCOC)c(=O)c3c2c2ccccc2n3C)CC1 | 5.61 |
| CN(Cc1ccc2nonc2c1)Cc1nc(CC2CC2)no1 | -9.36 |
| COc1ccc(CCNC(=O)Cn2nnc(-c3cccs3)n2)cc1OC | -7.76 |
| CCOC(=O)/C=C/CN(C(=O)OC(C)(C)C)S(=O)(=O)N1CC=CC1 | 10.9 |
| O=C(Nc1ccc(Cl)cc1)c1cncs1 | 3.5 |
| CC1=CC(=O)C=C/C1=C(/c1ccc(O)cc1C)c1ccccc1S(=O)(=O)[O-].[Na+] | 17 |
| Cn1c(NC(=O)c2ccco2)cc(=O)n(C)c1=O | 1.39 |
| CCC1CCCCN1CCCNC(=O)Cn1cc2c(n1)-c1c(oc(C(=O)N3CCCC3)c1C)CC2 (stereo not drawn) | 9.32 |
| CCCC[C@@H]1CNC(=S)N1CCCC | 11 |
| CCCOC(=O)NC(CC)COC(=O)Nc1cc(C)ccc1C (stereo not drawn) | -2.64 |
| COc1ccc(-n2c(C)cc(/C=C/c3nc(O)c([N+](=O)[O-])c(=O)[nH]3)c2C)cc1 | 3.06 |
| CCOc1ccc(NC(=O)CSc2nc3[nH]ncc3c(=O)[nH]2)cc1 | 10.3 |
| Cc1cccnc1CCNC(=O)C1CCC(=O)N(Cc2cccc(F)c2)C1 (stereo not drawn) | 17.3 |
| CCc1ccc(S(=O)(=O)Nc2cc3c(cc2C)n(C)c(=O)n3C)cc1 | -28.8 |
| CC(CNC(=O)c1cc(Cl)ccc1[N+](=O)[O-])NC(=O)c1cc(Cl)ccc1[N+](=O)[O-] (stereo not drawn) | -1.58 |
| CCCn1c(N)c(C(=O)CSc2nnc(Cc3ccccc3)o2)c(=O)n(C)c1=O | -0.939 |
| Cc1ccc(-c2[nH]c3ccccc3c2SCCNC(=O)c2cc3ccccc3oc2=O)cc1 | 17.4 |
| CCCC(=O)N(c1ccc2oc(=O)sc2c1)S(=O)(=O)c1cccs1 | 6.31 |
| Cc1cc(C)c(S(=O)(=O)c2ccccc2Cl)c(=O)[nH]1 | 10.7 |
| COc1ccc2[nH]c3c(=O)n(CCCCCC(=O)NCCC(C)C)c(=S)[nH]c3c2c1 | 23.5 |
